Results on 56 sequences are retold here after the supplement of paper PMC7726561.

In all, about 1,100 sequences were measured (“thermal melting temperature (Tm) of peptide-HLA complex”: median about 58, lowest 2% from about 42 on). The list shows a part of the results.
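Further: cell lysates heated 10 min at 37–73 °C, remaining pHLA pulled down with pan-class I antibody, peptides quantified by DIA-MS versus 37 °C, Tm where half the complex is lost.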

In this assay the target is HLA-A*02:01. Kind of assay: thermal melting temperature (Tm) of peptide-HLA complex; higher = more thermostable pHLA complex. The settings on record: C1R-A*02:01.
In turn, YILEGEPGKV came in with a thermal melting temperature of 54.5 °C. In the case of FVYTETVHV it was 47.2 °C. In the case of KIADFGWSV it was 62.2 °C; in that of SLAGGLDDMKA, 45.1 °C. For SLADLYFRA the value was 63.1 °C.

Sequence KILEETLYV came in with a thermal melting temperature of 59.9 °C. Sequence LLPSEGIVHL displayed a thermal melting temperature of 41.3 °C. Consider ILDQKINEV, for which the thermal melting temperature is 60 °C. In turn, TLIRSDAVALV registered a thermal melting temperature of 57.6 °C. In the case of TLADLVHHV it was 62.2 °C; in that of SVAEGRALMSV, 56.8 °C; in that of FLYDTHQNL, 56.7 °C. ALNEKLVNL yielded a thermal melting temperature of 57.9 °C. For TVMDEIHTV the value was 57.6 °C.

YLLQEPPRTV: the thermal melting temperature was determined as 62.2 °C. For YQLEIPENFTT the value was 58.3 °C; for VLLPDERTISL, 52 °C; for RLGGIPVGV, 55.9 °C. In the case of VINDLTYHV it was 59.9 °C; in that of SLLPTEQPRL, 58.1 °C; in that of YLDENYERI, 52.2 °C.

On to LLAILPEAARA, for which the thermal melting temperature was 60 °C. For AVIDVGINRV the value was 54.2 °C; for YLDEDTIYHL, 45.2 °C; for ELAKETFGV, 51.9 °C. In the case of VLQDTVEQL it was 60.4 °C; in that of QLLEKVPTL, 61.7 °C; in that of LLAETHYQL, 57.2 °C. For RLMNDMTAV the value was 58.9 °C; for VLADQVWTL, 59 °C; for SQWDSPMRV, 59 °C. Take NQIEDNDDFQL: the thermal melting temperature stood at 42 °C. For FQDPVPLTV, the thermal melting temperature came out at 55.2 °C. In the case of GLYEFPLNKV it was 61.7 °C; in that of YLLDQHILI, 64.5 °C; in that of HIIENIVAV, 59.6 °C. Take VLFEGRTVQL: the thermal melting temperature came to 57.3 °C.

In the case of RLWDLTTGTTT, the thermal melting temperature is 56.4 °C. As for ALNEEAGRLLL, the thermal melting temperature came out at 62.1 °C. In the case of ALSALTARL it was 55.7 °C. Sequence SLDTQPKKV came in with a thermal melting temperature of 40.4 °C. Turning to WLIEDGKVVTV, the thermal melting temperature worked out at 58.3 °C.

Sequence ILSGIGVSQV had a thermal melting temperature of 57.4 °C. For LLYDLADQLHA the value was 59.9 °C; for VLKVFLENV, 55.2 °C; for MLDDRAYLV, 61.5 °C. For FLQPELVKL the value was 59.1 °C; for YLINEIDRI, 61.8 °C.

YLPPGFLSA: the thermal melting temperature amounted to 51.7 °C.

Sequence FVMEGEPPKL displayed a thermal melting temperature of 55.5 °C.

With TLSQAIVKV, the thermal melting temperature came to 54.1 °C. ALATLIHQV: the thermal melting temperature amounted to 63.3 °C. On to ALDEYNMKI, for which the thermal melting temperature came to 59.2 °C. KLLEEQGIFL had a thermal melting temperature of 63.4 °C. RLPEIYIQL: the thermal melting temperature was 58.7 °C. VMLDVPIRL returned a thermal melting temperature of 55.9 °C.
